The text below walks through data of PMC10726135.

The other results are listed elsewhere or left out. At the low end of the ranking the order means little. The protein was read in a cell extract, so binding may be indirect.

The target of the test is T1, HNF4alpha2 (COS-7 nuclear extract) (UniProt P41235).
T1 sequence: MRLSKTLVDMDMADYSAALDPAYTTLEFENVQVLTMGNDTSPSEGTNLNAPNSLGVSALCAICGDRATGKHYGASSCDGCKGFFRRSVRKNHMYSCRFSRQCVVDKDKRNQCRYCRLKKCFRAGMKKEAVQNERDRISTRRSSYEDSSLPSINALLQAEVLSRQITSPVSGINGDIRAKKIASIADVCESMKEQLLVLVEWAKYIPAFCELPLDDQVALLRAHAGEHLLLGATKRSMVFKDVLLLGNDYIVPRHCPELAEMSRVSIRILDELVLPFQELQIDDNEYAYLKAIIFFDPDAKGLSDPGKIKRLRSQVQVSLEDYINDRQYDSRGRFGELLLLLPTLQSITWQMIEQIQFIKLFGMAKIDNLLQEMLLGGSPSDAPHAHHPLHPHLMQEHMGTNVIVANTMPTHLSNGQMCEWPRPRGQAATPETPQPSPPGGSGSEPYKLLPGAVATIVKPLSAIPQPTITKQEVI
The test is described as follows: protein-binding microarray. The note with it: COS-7 nuclear extract on double-stranded Agilent 4x180k PBM; binding buffer, salt, pH and temperature not given; high values mean tight binding; double strand, one strand shown; sequences stand for … in …GCCTAGGGAGATTAGAGTATCGGTCGA
Turning to GTGATCAATGTGACTGGAGCAGAGCGATCA, the binding signal (log2 normalized intensity) is -1.12.
For AGTTCAGCCCTTAGGACCAGGGGGGGAATG the value was -1.22; for TCAACAGAGTGCTTAATCTCTGCTCATAAT, -1.15.
As for AGGTGCTGCACCTTGAAACCCCTCCTTACA, the binding signal (log2 normalized intensity) is 3.27.
As to AGGGGTGTGTTGACCGATAACCCTCCTGAA, the binding signal (log2 normalized intensity) is 0.229.
Turning to AGAGAAGCACATCCAGGCAGCTTCAGAAAC, the binding signal (log2 normalized intensity) was -1.08.
For the sequence GCAGTGACATGATCAAAGTTCATTGTAGCC, the binding signal (log2 normalized intensity) came out at 3.61.
On to GATGTTTGGTCTTATTATCTTCAATGATAA, for which the binding signal (log2 normalized intensity) is 1.4.
For CATCAATTTAGACCGTGTGGAAACCTAACT, the binding signal (log2 normalized intensity) is -0.752.
In the case of GTCAGCCACCCCTCCTCCTGGGGGCTTTTG it was 2.13.
Turning to TATGAGGCTTCCATTCTCAGGCAGATGGGC, the binding signal (log2 normalized intensity) was -0.98.
For GTTTACTCAGTCATACCACATGGATGGATT the value was -0.125; for GTGTCAATTCTCATTCATCCAAGGACTTTG, 2.23.
On to TTCCCTTTGTATGGCAGGGGTTAACCTCTA, for which the binding signal (log2 normalized intensity) stood at 2.72.
In the case of GAGCAGGCCTGGGCTTGCAAAGGTCAGGTT it was 3.18; in that of CACACACACACACACACCCCACACACCAAA, 3.12.
For GCACATTCCTTTCCCTTTATTTAGCCTCAC, the binding signal (log2 normalized intensity) amounted to 1.58.
For CGTTAGGCTACAGTGGTAACCACAGTACTG the value was -1.14; for TAGGTTAGATAGGAATCTGGATGGCTGAGC, -0.00634; for GAAAACCTTAGGCGAATGTCAAAGGTCTTT, 2.88.
For CGCTCTGAGTGACCTTTCACCCGCGCCCAG, the binding signal (log2 normalized intensity) stood at 5.48.
Take CTTGGGTGTATGGGTATAGGCGCGCGTGTG: the binding signal (log2 normalized intensity) was 1.91.
For the sequence AGAAACAGCTGGATTGTTACATCATAGTGT, the binding signal (log2 normalized intensity) came out at 1.31.
As to ATCAGCTTATCTCAAGAATTGTCTAACCGC, the binding signal (log2 normalized intensity) was -1.11.
In the case of TTTTTTTTCTTTCTTTTCCCAAACCACGTT it was 1.4; in that of TTTTGTATGCATAAGGCCTTGGACCTTCTG, 2.44; in that of TAAGAAATCAGGAGCAAAGGTTGGGGGTGG, 0.963.
Turning to GCCACATCCTGTCTCCTTTAACCTTCATTC, the binding signal (log2 normalized intensity) worked out at 1.84.
For CTCACCTTCAGATGCCATGTCTAAAGGCTG the value was -0.339; for CAGTCCACATGGTGTCTTTTGTTGTTGTTA, 2.33; for ACCCAGTTCGTGCTTCTTGGCCTCTTTGTT, 1.98.
For CCACAAAGGCCAGAGAAAGAGAGAGTTAGT the value was -1.07; for GGCCAGCGACTTTAGGGGCCAAGGGAAAAC, -1.08; for CTGCAGTGTGACCTTTGCCTTCTTGACATC, 5.94.
Take TCTGGGATCTCAGGGTGGACTTTAAACATT: the binding signal (log2 normalized intensity) was determined as 5.91.
With GACGCGCTTGGGCGACGGACGCGCCGCGCC, the binding signal (log2 normalized intensity) is -1.04.
On to GATTGTTGTGTGCCCACCTGGGCAACAGGG, for which the binding signal (log2 normalized intensity) was determined as 0.706.
In the case of GATAAGGCTAATCCTTACACAGCAGCTTTA it was -1.16; in that of AGCCCAGGTAACATACCAAAAAGCATAACT, -1.28; in that of GTGATTCAACTCTGACCCATAATAACGTCT, 1.57.
For AGTTCTGAATGAGCAGACTGAGTTGCAGGA the value was -0.751; for TCTAAGAAATAGGTTAAAGAGTGGTCTTGG, 1.38; for CAACATACAGAGGCTCTGAGAGTCTCAGTG, -1.07.
For the sequence TAAAGTGGATTGCTGGCCTTTTATCTTTTA, the binding signal (log2 normalized intensity) came out at 1.08.
As to CTGTTTGTATAACCCTGGCTGGAGTTGCTG, the binding signal (log2 normalized intensity) was -1.08.
For TGGAACACAGAGGGAAATGCAAACATTTCT, the binding signal (log2 normalized intensity) was -1.01.
For GGGTATGAATTTAACCTTTGCTCTCTGAAA, the binding signal (log2 normalized intensity) is 5.68.
In the case of AGGTACTAAGAGATTTGAATATGTACATGG it was 1.38.
For ATGTCTTCTTTTATCACTTTGTAATGTCCC the value was 2.22.
In the case of CCTTAGATCCACGGAGAATGTAGACCTTTA it was 1.88; in that of CCCACTTCAGGCAGGAATGCTGAACAATTG, 0.142; in that of GGCTCCAGAGTTTAATACCTCTGATCACTA, -1.11.
As for TATAGGGCATACCCTTCCTGCTGACAAACT, the binding signal (log2 normalized intensity) was -1.14.
Consider CCAGGAGCAGGATAGAAGGAAACAGTTCAG, for which the binding signal (log2 normalized intensity) was -1.09.
As to CAAGCAATCTGGCTGCAGAGTCCAAGATGC, the binding signal (log2 normalized intensity) turned out to be 0.917.
For TTTGCTTATCTGATAAGTCCATACCTAGTC the value was 0.542.
For GTCTAGCGCAAATGATCAAAGGTTGGTTTT the value was 3.97; for AACAAGTTCTGCAGACTCCCTAGAAGAGTG, -1.1.
As to CCAGAAGGAATGAGACATGAATCCATCCCA, the binding signal (log2 normalized intensity) was -1.25.
As to TTCTATGTTCACATCTCCTCTGGAGGCCAA, the binding signal (log2 normalized intensity) was 0.985.
In the case of TAACCCTACAGTCCTGCCACATCCCCCACA, the binding signal (log2 normalized intensity) was 4.26.
As to TCAGGTCAGTAGCCCAGGGTCACACAGATG, the binding signal (log2 normalized intensity) is 1.72.
For TTCCATTGTACTCAGTATGTGCTGACTGAC the value was 0.765; for CCGGGGAAAGGGAAAAAGGGAGATAGGTTA, -1.11; for GAGAAACTTCTTTGTGATGTGTGGATTCAG, 1.38.
For GATGGATATATGTACAGCTGTGTATGTGGC the value was 1.48; for CCCCCTTCATCTGGGACGTGGCTCAAGATT, 1.67.
Turning to TTTTTCCTGGATGCCAGGCAAGAGCTCAGA, the binding signal (log2 normalized intensity) was -0.982.
On to CAACCTCTCCAATGCTATGCTTTTATTTAA, for which the binding signal (log2 normalized intensity) stood at 0.371.
For CATCCTGGCGACAGCAACTAGCAACTTGGA the value was -1.02; for CTTATAGCTCAACCCCCAAAACTGCCTGAT, 3.05; for TTGGAATGCCCTTATCTCATACCTTGCATG, 0.672.
